In US20090123474A1, “COMBINATION OF ANGIOPOIETIN-2 ANTAGONIST AND OF VEGF-A, KDR AND/OR FLTL ANTAGONIST FOR TREATING CANCER” (ASTRAZENECA AB, priority 2005, published 2009):

Molecular target: T1, Angiopoietin-2 binding to Tie-2 (Homo sapiens, UniProt O15123)
T1 construct: purchased R&D Systems, Inc. BT623 (Angiopoietin-2, biotinylated); 313-TI-100 (Tie-2/Fc)
T1 sequence (O15123 19-496): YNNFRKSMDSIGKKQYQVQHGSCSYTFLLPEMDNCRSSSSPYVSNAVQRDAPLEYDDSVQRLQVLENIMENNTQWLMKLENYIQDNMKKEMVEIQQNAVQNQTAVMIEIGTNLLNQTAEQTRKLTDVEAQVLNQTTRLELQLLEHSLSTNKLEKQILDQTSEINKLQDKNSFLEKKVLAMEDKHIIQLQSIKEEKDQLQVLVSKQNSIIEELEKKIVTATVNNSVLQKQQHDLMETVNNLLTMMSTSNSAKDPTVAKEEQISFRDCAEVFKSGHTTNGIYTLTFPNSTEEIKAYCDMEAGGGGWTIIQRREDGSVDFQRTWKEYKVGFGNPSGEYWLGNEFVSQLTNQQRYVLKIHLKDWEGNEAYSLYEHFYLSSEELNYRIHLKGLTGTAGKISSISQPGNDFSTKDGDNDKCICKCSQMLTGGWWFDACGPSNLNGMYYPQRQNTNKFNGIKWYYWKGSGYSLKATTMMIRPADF
Test: Competitive binding assay (modified ELISA): inhibition of Angiopoietin-2 binding to Tie-2
Experimental: As discussed above, Angiopoietin-2 exerts its biological effect by binding to the Tie-2 receptor. Monoclonal antibodies that inhibited Angiopoietin-2/Tie-2 binding were identified by a competitive binding assay using a modified ELISA. The mAb used were products of micro-purification from 50 ml of exhaustive supernatants of the hybridoma pools that were specific for Angiopoietin-2 (see above). 96-well Nunc Immplates™ were coated with 100 μl of recombinant human Tie-2/Fc fusion protein (R&D Systems, Inc., Cat. No. 313-TI-100) at 4 μg/ml by incubating overnight at 4° C. The plates were washed four times using Phosphate Buffer Saline (PBS) with a Skan™ Washer 300 station (SKATRON). […]
Biotinylated recombinant human Angiopoietin-2 (R&D Systems, Inc. Cat. No. […] Bound biotinylated Angiopoietin-2 was then detected using 100 μl/well of Streptavidin-HRP conjugate at 1:200 by incubating at room temperature for half an hour. After washing twice, the bound Streptavidin was detected by HRP substrate (R&D Systems, Cat. No. DY998). […] The light absorbance at 450 nm was determined by a Spectramax Plus reader. […]
To quantitate the inhibitory activities of the mAb on Angiopoietin-2 binding to Tie-2, the titer was determined for purified mAbs from the top candidates using a competitive binding assay. […] The maximal inhibition (efficacy) and IC50 (potency) were calculated by the software.

B1: mAb 5.101.1: fully human anti-Angiopoietin-2 monoclonal antibody, variable regions SEQ ID NO: 33-36 (antibody, listed as Homo Sapiens, listed as Homo sapiens, V domains shown)
VH: [left out - about 100 residues]DGGSIPVSGHFDYWGQGTLVTVSSA
VL: EIVMTQSPATLSVSPGERATLSCRASQSLISNLAWYQQKPGQAPRLLIFGASTRATGIPARFSGSGSGTEFTLTISSLQSEDFAVYYCHQYNNWWTFGQGTKVEIKR
EC50 (potency, competitive binding of Angiopoietin-2 to Tie-2, purified mAb): 0.3762 µg/mL | Efficacy* (ratio of bound Angiopoietin-2 with mAb (30 μg/ml) versus without mAb): 0.3639
